# The full ranking holds about 33,000 sequences; the median of “E-score (-0.5 to 0.5)” is about -0.041, and the highest 2% start at about 0.37. Some of the results follow.
# Molecular target: T1, Ecm22 (UniProt Q05958)
# T1 sequence: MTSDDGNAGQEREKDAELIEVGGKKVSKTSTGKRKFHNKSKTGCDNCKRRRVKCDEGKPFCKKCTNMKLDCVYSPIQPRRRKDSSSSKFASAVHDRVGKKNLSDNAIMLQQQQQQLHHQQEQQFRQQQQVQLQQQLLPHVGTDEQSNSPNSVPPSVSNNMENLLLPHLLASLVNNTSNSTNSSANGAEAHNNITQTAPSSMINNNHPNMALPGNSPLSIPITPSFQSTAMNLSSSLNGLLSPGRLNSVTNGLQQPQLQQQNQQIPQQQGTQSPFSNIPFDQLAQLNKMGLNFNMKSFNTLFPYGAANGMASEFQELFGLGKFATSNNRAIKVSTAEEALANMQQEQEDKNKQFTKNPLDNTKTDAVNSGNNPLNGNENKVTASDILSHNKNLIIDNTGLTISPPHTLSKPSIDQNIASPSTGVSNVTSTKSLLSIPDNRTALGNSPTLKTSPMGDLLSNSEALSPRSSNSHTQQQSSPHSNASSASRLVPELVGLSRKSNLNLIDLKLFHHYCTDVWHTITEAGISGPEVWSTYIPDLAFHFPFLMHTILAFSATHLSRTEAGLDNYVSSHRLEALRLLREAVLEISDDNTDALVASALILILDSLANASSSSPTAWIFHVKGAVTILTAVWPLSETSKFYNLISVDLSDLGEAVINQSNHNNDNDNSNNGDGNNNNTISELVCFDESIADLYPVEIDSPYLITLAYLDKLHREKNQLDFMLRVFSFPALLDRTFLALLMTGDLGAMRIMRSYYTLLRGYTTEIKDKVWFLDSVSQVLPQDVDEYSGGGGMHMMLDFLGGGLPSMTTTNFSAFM
# Test: PBM E-score (8-mer binding enrichment) (E-score (-0.5 to 0.5)); higher = stronger / more preferred TF binding; most listed sequences are background and not binding sites
# Conditions: protein concentration: 200 nM; construct: GST-full length
# In short: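 GST-tagged yeast TFs (full-length or DNA-binding domain) were made by PURExpress in vitro transcription/translation and applied at about 100-200 nM to universal all-10-mer Agilent arrays. The arrays were made double-stranded by primer extension, on fresh or once-stripped slides. Bound protein was detected with fluorescent anti-GST, and scans were normalised with masliner. Each ungapped eight-base word, pooled with its reverse complement, received an E-score (modified Wilcoxon-Mann-Whitney statistic) from the Universal PBM Analysis Suite.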
row,Sequence,PBM E-score
1,AAGCACAC,-0.0652
2,ATCCCGGC,0.135
3,CTATCGGA,0.0301
4,ATGATGGA,-0.228
5,ATCGATCG,0.194
6,AATAGCTC,-0.187
7,CGACACGC,0.181
8,GCCCCTCA,-0.0606
9,GGTCATAC,0.0858
10,AACGTGAA,-0.0236
11,CTTATGGA,-0.122
12,ATCAGCGA,0.0199
13,CTTACTGC,-0.119
14,CATACCCC,-0.0887
15,ACCGCGAA,0.0992
16,GCGACGTA,0.265
17,GTTATCAA,-0.026
18,CCAATAAC,0.0328
19,ACGGAACA,0.0777
20,CAAGCTTC,0.0567
21,ACCGGCTG,-0.125
22,AGAGTGGC,-0.125

row,Sequence,PBM E-score
1,GGCTCCAA,-0.255
2,GATGAAGA,0.0264
3,ATCGCATC,0.172
4,GAGCCCGC,0.132
5,CAGTCGAC,0.0794
6,ATAGACCC,-0.102
7,AGTCTGTA,0.0767
8,ACCCCCGA,-0.157
9,GCATACCA,0.0161
10,ACCCATGA,-0.142
11,ACGGATGC,0.128
12,TGGATCAA,-0.152
13,CCAAATCA,-0.0571
14,GGGAACTA,0.0948
15,GGACGTAA,-0.191
16,CACGGAGC,-0.0645
17,CGGGAAAG,0.0376
18,ACGGTCAT,0.133
19,CTTCTGTC,-0.199
20,CTCTGACC,-0.093
21,ACATGTAC,0.0377
22,CGCATTTC,0.0907

row,Sequence,PBM E-score
1,GGCTAACC,-0.137
2,GCTCGTCA,0.0115
3,ACAGCTAC,-0.00322
4,AAACTAAA,0.0234
5,GAAGAAAC,0.132
6,CTAATGTA,0.0966
7,ATAACGCA,0.0311
8,TAACCACA,0.015
9,GTAGGTAA,-0.25
10,CCGGAAAG,-0.0844
11,TGTAAACA,-0.0145
12,CATCGCTA,0.136
13,GATTCCAA,-0.114
14,ATACTATC,0.0363
15,GCGTGCCA,-0.107
16,CCCAGGAC,-0.318
17,CGTGTAAG,0.121
18,TATGACCA,0.0827
19,AATACTAC,0.173
20,AGTAGACG,0.0957
21,ACGCTATC,0.0211
22,GAAGTGTA,-0.0859

row,Sequence,PBM E-score
1,CCTCCGTC,-0.147
2,AACTGGAG,-0.292
3,AGGTCTGC,-0.195
4,CCGGTACC,-0.103
5,AACGTATC,0.127
6,ATAGAAAC,-0.00054
7,GTAAGGAC,-0.113
8,AAGAGCTT,-0.107
9,GTAACGGA,0.15
10,GTTTAAAC,0.285
11,ACAGGACG,-0.0316
12,ATAATGAC,-0.0848
13,TGTCCGAA,0.165
14,AGGTTGAG,-0.181
15,AACTTCGC,0.175
16,CTGCGCCA,-0.1
17,ACAGGAGC,-0.144
18,AACCTCTA,-0.146
19,CTGTTTTC,0.00601
20,CCAGCAGG,-0.104

# From the supplement of paper PMC3334620
